Experimental data as given in the supplement of paper PMC6746778.
The list shows a part of the results. Many values rest on one well or one pass, so single values are uncertain.

Columns and labels:
Experiment in all cases: proliferation Z-score within cell line (SRB, relative to all inhibitors screened on that line); triple-negative breast cancer lines and a kinase inhibitor library; SRB is the sulforhodamine B protein stain; higher = less growth inhibition (more resistant)
Conditions in all cases: concentration: 1 µM; 4 days
Bt20 = test system: Bt20
Bt549 = test system: Bt549
HCC1143 = test system: HCC1143
HCC1806 = test system: HCC1806
HCC1937 = test system: HCC1937
HCC38 = test system: HCC38
HCC70 = test system: HCC70
Hs578T = test system: Hs578T
MDA-MB-231 = test system: MDA-MB-231
MDA-MB-435s = test system: MDA-MB-435s
MDA-MB-436 = test system: MDA-MB-436
MDA-MB-453 = test system: MDA-MB-453
MDA-MB-468 = test system: MDA-MB-468
SKBR7 = test system: SKBR7
SUM1315MO2 = test system: SUM1315MO2
SUM149PT = test system: SUM149PT
SUM159PT = test system: SUM159PT
SUM185PE = test system: SUM185PE
SUM229PE = test system: SUM229PE
SUM52PE = test system: SUM52PE
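Also: Single-dose primary screen of a 378-member kinase inhibitor library in 96-well plates, with growth read as absorbance of protein-bound SRB dye after TCA fixation.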

Row | Structure (SMILES) | proliferation Z-score within cell line (Bt20) | proliferation Z-score within cell line (Bt549) | proliferation Z-score within cell line (HCC1143) | proliferation Z-score within cell line (HCC1806) | proliferation Z-score within cell line (HCC1937) | proliferation Z-score within cell line (HCC38) | proliferation Z-score within cell line (HCC70) | proliferation Z-score within cell line (Hs578T) | proliferation Z-score within cell line (MDA-MB-231) | proliferation Z-score within cell line (MDA-MB-435s) | proliferation Z-score within cell line (MDA-MB-436) | proliferation Z-score within cell line (MDA-MB-453) | proliferation Z-score within cell line (MDA-MB-468) | proliferation Z-score within cell line (SKBR7) | proliferation Z-score within cell line (SUM1315MO2) | proliferation Z-score within cell line (SUM149PT) | proliferation Z-score within cell line (SUM159PT) | proliferation Z-score within cell line (SUM185PE) | proliferation Z-score within cell line (SUM229PE) | proliferation Z-score within cell line (SUM52PE)
1 | COc1ccccc1-c1cc(Nc2cccc(CS(N)(=O)=O)c2)ncn1 | -0.131 | -0.858 | 0.211 | -1.41 | -0.496 | -1.8 | -0.142 | -1.17 | 0.784 | 0.487 | -0.457 | -1.56 | 0.248 | -1.34 | 0.0782 | 0.814 | 0.353 | 0.133 | 0.542 | 0.773
2 | Cn1cnc2c(F)c(Nc3ccc(Br)cc3F)c(C(=O)NOCCO)cc21 | -0.263 | 0.498 | -1.42 | -1.35 | 0.0443 | -0.0925 | -0.447 | -0.502 | -2.16 | -2.24 | 0.23 | 0.395 | 0.343 | 1.32 | 0.197 | -1.64 | 0.399 | -0.529 | -2.52 | -1.5
3 | Nc1ncnc2c1c(-c1cccc(OCc3ccccc3)c1)cn2C1CC(CN2CCC2)C1 (stereo not given) | 0.936 | 0.196 | -1.99 | 0.279 | -1.42 | 0.51 | -1.26 | 0.687 | 0.394 | 0.216 | -2.47 | 0.73 | 1.15 | -0.558 | 0.603 | -0.322 | -2.94 | 1.03 | -0.666 | 1.27
4 | Cc1cnc(Nc2ccc(OCCN3CCCC3)cc2)nc1Nc1cccc(S(=O)(=O)NC(C)(C)C)c1 | 0.788 | 0.44 | 0.0932 | 0.548 | 0.237 | 0.648 | 0.755 | 0.566 | -0.534 | -0.666 | -0.122 | 0.676 | -0.227 | 0.314 | -0.35 | -0.535 | 0.723 | -0.189 | 0.549 | -0.211
5 | C[S+]([O-])c1ccc(-c2nc(-c3ccc(F)cc3)c(-c3ccncc3)[nH]2)cc1 (stereo not given) | 0.882 | 0.13 | -2.44 | 0.96 | -2.79 | 0.574 | -2.19 | 0.703 | 0.761 | 0.716 | -2.65 | 0.306 | 1.18 | -0.76 | 0.493 | 0.914 | 0.326 | 0.313 | 0.739 | 0.64
6 | Cc1ccc(-n2nc(C(C)(C)C)cc2NC(=O)Nc2ccc(OCCN3CCOCC3)c3ccccc23)cc1 [BIRB 796 (Doramapimod)] | 1.06 | 0.733 | 0.589 | 1.41 | 0.414 | 0.639 | 0.67 | 0.698 | 0.751 | 0.881 | 0.636 | 0.851 | 1.15 | 0.376 | 0.485 | 0.889 | 0.769 | 0.74 | 1.51 | 0.858
7 | C1=N/C2=N/c3ccc(OCCN4CCCC4)c(c3)COC/C=C/COCc3cccc(c3)C(=C1)N2 [Pacritinib (SB1518)] | -0.713 | -0.102 | -0.655 | -0.844 | -1.28 | 0.411 | -0.224 | -0.0537 | -1.74 | -1.37 | -1.91 | -0.988 | -1.28 | -1.31 | -0.234 | -0.369 | -0.149 | -1.17 | -1.25 | -0.771
8 | Cc1cc2c(F)c(Oc3ncnn4cc(OC[C@@H](C)O)c(C)c34)ccc2[nH]1 | 0.643 | 0.82 | 0.913 | 0.904 | 0.83 | 0.63 | 0.895 | 0.678 | 0.29 | 1.2 | 0.749 | 1.11 | 0.786 | 1.46 | 0.018 | 0.702 | 0.62 | -0.424 | 0.748 | -0.138
9 | CCCS(=O)(=O)Nc1ccc(F)c(C(=O)c2c[nH]c3ncc(-c4ccc(Cl)cc4)cc23)c1F [Vemurafenib (PLX4032, RG7204)] | 0.089 | 0.543 | -0.771 | 0.759 | -1.9 | 0.654 | -1.98 | 0.764 | 0.646 | -1.5 | -1.68 | 0.788 | 0.579 | 0.487 | 0.457 | 0.752 | -1.24 | 0.236 | 1.28 | 0.118
10 | Cc1c(CN2CCN(C(=O)[C@H](C)O)CC2)sc2c(N3CCOCC3)nc(-c3cnc(N)nc3)nc12 | -1.78 | -1.84 | -1.25 | -1.16 | -1.8 | -0.778 | -1.76 | -1.98 | -1.19 | -1.39 | -1.62 | -1.56 | -1.13 | -1.66 | -1.39 | -0.66 | -1.72 | -1.6 | -1.5 | -1.21
11 | CC(C)(C)n1nc(-c2ccc(Cl)cc2)c2c(N)ncnc21 | -0.105 | 0.775 | 0.517 | 0.555 | 0.715 | 0.476 | 0.549 | 0.614 | 0.472 | 0.494 | 0.822 | 0.824 | 0.621 | 0.339 | -0.401 | -0.134 | 0.552 | 0.354 | 0.036 | 0.188
12 | FC(F)c1nc2ccccc2n1-c1nc(N2CCOCC2)nc(N2CCOCC2)n1 | -0.954 | 0.709 | 0.744 | 0.663 | 0.792 | 0.57 | 0.903 | 0.683 | -0.628 | -0.875 | 1.11 | 0.911 | -1.07 | 0.959 | -1.72 | -0.027 | 0.621 | -1.68 | -0.66 | -1.31
13 | Cc1cn(-c2cc(NC(=O)c3ccc(C)c(Nc4nccc(-c5cccnc5)n4)c3)cc(C(F)(F)F)c2)cn1 [Nilotinib (AMN-107)] | 1.2 | 0.247 | 0.952 | 1.47 | 0.737 | 0.614 | 0.755 | 0.117 | 0.864 | 1.02 | 0.631 | 0.573 | 1.03 | 0.664 | 1.18 | 1.26 | 0.664 | 1.14 | 1.45 | 1.22
